Laboratory results published in the supplement of paper PMC8728848.
The list shows a part of the results.

Columns and labels:
Experiment in all cases: glycan array binding signal (z-score within array); higher = stronger binding
Details in all cases: glycan notation: IUPAC condensed, linker removed
[1] = molecular target: Neu5Ac(a2-6)GalNAc(b1-4)GlcNAc6S
How it was run: (§1)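 The binding signal is a Z-score computed within each array and averaged over linkers. Arrays of the same protein sequence at different concentrations or buffers were also averaged together. Data originate from 3228 arrays in the Consortium for Functional Glycomics database, kept only where the protein sequence was available.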

[2] = molecular target: Neu5Ac(a2-6)GlcNAc(b1-4)GlcNAc
How it was run: as §1

[3] = molecular target: Neu5Ac(a2-6)GlcNAc(b1-4)GlcNAc(b1-4)GlcNAc
How it was run: as §1

Neu5Ac(a2-8)Neu5Ac = molecular target: Neu5Ac(a2-8)Neu5Ac
How it was run: as §1

[4] = molecular target: Neu5Ac(a2-8)Neu5Ac(a2-3)Gal(b1-3)GalNAc(b1-4)[Neu5Ac(a2-8)Neu5Ac(a2-3)]Gal(b1-4)Glc
How it was run: as §1

[5] = molecular target: Neu5Ac(a2-8)Neu5Ac(a2-3)Gal(b1-4)Glc
How it was run: as §1

[6] = molecular target: Neu5Ac(a2-8)Neu5Ac(a2-3)[Gal(b1-3)GalNAc(b1-4)]Gal(b1-4)Glc
How it was run: as §1

[7] = molecular target: Neu5Ac(a2-8)Neu5Ac(a2-3)[GalNAc(b1-4)]Gal(b1-4)Glc
How it was run: as §1

[8] = molecular target: Neu5Ac(a2-8)Neu5Ac(a2-8)Neu5Ac
How it was run: as §1

[9] = molecular target: Neu5Ac(a2-8)Neu5Ac(a2-8)Neu5Ac(a2-3)Gal(b1-4)Glc
How it was run: as §1

[10] = molecular target: Neu5Ac(a2-8)Neu5Ac(a2-8)Neu5Ac(a2-3)[GalNAc(b1-4)]Gal(b1-4)Glc
How it was run: as §1

[11] = molecular target: Neu5Ac(a2-8)Neu5Ac(a2-8)Neu5Ac(a2-8)Neu5Ac(a2-3)[GalNAc(b1-4)]Gal(b1-4)Glc
How it was run: as §1

[12] = molecular target: Neu5Ac(b2-6)Gal(b1-4)GlcNAc
How it was run: as §1

Neu5Ac(b2-6)GalNAc = molecular target: Neu5Ac(b2-6)GalNAc
How it was run: as §1

[13] = molecular target: Neu5Ac9Ac(a2-3)Gal(b1-3)GlcNAc
How it was run: as §1

[14] = molecular target: Neu5Ac9Ac(a2-3)Gal(b1-4)GlcNAc
How it was run: as §1

[15] = molecular target: Neu5Ac9Ac(a2-6)Gal(b1-4)GlcNAc
How it was run: as §1

[16] = molecular target: Neu5Gc(a2-3)Gal(b1-3)GlcNAc
How it was run: as §1

[17] = molecular target: Neu5Gc(a2-3)Gal(b1-3)[Fuc(a1-4)]GlcNAc
How it was run: as §1

Neu5Gc(a2-3)Gal(b1-4)Glc = molecular target: Neu5Gc(a2-3)Gal(b1-4)Glc
How it was run: as §1

[18] = molecular target: Neu5Gc(a2-3)Gal(b1-4)GlcNAc
How it was run: as §1

[19] = molecular target: Neu5Gc(a2-3)Gal(b1-4)[Fuc(a1-3)]GlcNAc
How it was run: as §1

[20] = molecular target: Neu5Gc(a2-6)Gal(b1-4)GlcNAc
How it was run: as §1

Neu5Gc(a2-6)GalNAc = molecular target: Neu5Gc(a2-6)GalNAc
How it was run: as §1

[21] = molecular target: Neu5Gc(b2-6)Gal(b1-4)GlcNAc
How it was run: as §1

B1: PRKCE (Homo sapiens), Q02156 (protein)
chain: MVVFNGLLKIKICEAVSLKPTAWSLRHAVGPRPQTFLLDPYIALNVDDSRIGQTATKQKTNSPAWHDEFVTDVCNGRKIELAVFHDAPIGYDDFVANCTIQFEELLQNGSRHFEDWIDLEPEGRVYVIIDLSGSSGEAPKDNEERVFRERMRPRKRQGAVRRRVHQVNGHKFMATYLRQPTYCSHCRDFIWGVIGKQGYQCQVCTCVVHKRCHELIITKCAGLKKQETPDQVGSQRFSVNMPHKFGIHNYKVPTFCDHCGSLLWGLLRQGLQCKVCKMNVHRRCETNVAPNCGVDARGIAKVLADLGVTPDKITNSGQRRKKLIAGAESPQPASGSSPSEEDRSKSAPTSPCDQEIKELENNIRKALSFDNRGEEHRAASSPDGQLMSPGENGEVRQGQAKRLGLDEFNFIKVLGKGSFGKVMLAELKGKDEVYAVKVLKKDVILQDDDVDCTMTEKRILALARKHPYLTQLYCCFQTKDRLFFVMEYVNGGDLMFQIQRSRKFDEPRSRFYAAEVTSALMFLHQHGVIYRDLKLDNILLDAEGHCKLADFGMCKEGILNGVTTTTFCGTPDYIAPEILQELEYGPSVDWWALGVLMYEMMAGQPPFEADNEDDLFESILHDDVLYPVWLSKEAVSILKAFMTKNPHKRLGCVASQNGEDAIKQHPFFKEIDWVLLEQKKIKPPFKPRIKTKRDVNNFDQDFTREEPVLTLVDEAIVKQINQEEFKGFSYFGEDLMP
glycan array binding signal (z-score) [1]: -0.046
glycan array binding signal (z-score) [2]: -0.318
glycan array binding signal (z-score) [3]: -0.361
glycan array binding signal (z-score) (Neu5Ac(a2-8)Neu5Ac): 0.185
glycan array binding signal (z-score) [4]: -0.296
glycan array binding signal (z-score) [5]: -0.335
glycan array binding signal (z-score) [6]: -0.308
glycan array binding signal (z-score) [7]: 0.559
glycan array binding signal (z-score) [8]: 1.19
glycan array binding signal (z-score) [9]: 0.163
glycan array binding signal (z-score) [10]: -0.074
glycan array binding signal (z-score) [11]: 0.987
glycan array binding signal (z-score) [12]: -0.121
glycan array binding signal (z-score) (Neu5Ac(b2-6)GalNAc): -0.295
glycan array binding signal (z-score) [13]: -0.41
glycan array binding signal (z-score) [14]: -0.408
glycan array binding signal (z-score) [15]: -0.427
glycan array binding signal (z-score) [16]: -0.344
glycan array binding signal (z-score) [17]: -0.22
glycan array binding signal (z-score) (Neu5Gc(a2-3)Gal(b1-4)Glc): -0.141
glycan array binding signal (z-score) [18]: -0.302
glycan array binding signal (z-score) [19]: -0.302
glycan array binding signal (z-score) [20]: -0.293
glycan array binding signal (z-score) (Neu5Gc(a2-6)GalNAc): -0.342
glycan array binding signal (z-score) [21]: 0.617
